This is an account of results in ChEMBL document CHEMBL1201862, “PubChem BioAssay data set” (2004).

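Values below derive from 48-hour exposures of cells grown in 96-well plates, with endpoints linearly interpolated between the two concentrations bracketing the appropriate inhibition level. At the GI50, growth is halved.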 Activity calls are given as the source filed them. No stated cut-off is given here; in the data, active = GI50 up to about 1.1 µM and inactive = higher.

The assay has as its system NCI-H322M. The assay can be described thus: growth of human tumour cells (NCI), 48 h.
For `O=C1C(O)=C(Cc2ccccc2)C(=O)c2ccccc21`, the GI50 was inactive: 43.8 µM.

As to `CC1=C(/C=C/C(C)=C/C=C/C(C)=C/C=C/C=C(C)/C=C/C=C(C)/C=C/C2=C(C)C(=O)C(O)CC2(C)C)C(C)(C)CC(O)C1=O` (stereo unspecified), the GI50 is inactive: > 100 µM.

Turning to `COc1ccc2nc3cc([N+](=O)[O-])ccc3c(NNc3ccc([N+](=O)[O-])cc3)c2c1`, the GI50 is inactive: 63.1 µM.

As to `O=C(O)c1nc2ccccc2nc1Nc1ccc(F)cc1`, the GI50 was inactive: 34.8 µM.

Turning to `CCCCCCCCCCCCCCCCCCNc1ccn(C2OC(COP(=O)(O)OCC3OC(n4ccc(N)nc4=O)C(O)C3O)C(O)C2O)c(=O)n1` (stereo unspecified), the GI50 was inactive: 54 µM.

As to `CCOC(=O)/C=C(/C(=O)OCC)n1cc(C)c(=O)n(Cc2cn(COCCOC(C)=O)nn2)c1=O`, the GI50 was inactive: > 100 µM.

In the case of `C[C@H](OCc1ccccc1)C(=O)N1CCS(=O)(=O)N2CCC[C@H]2C1=O`, the GI50 was inactive: > 100 µM.

`C=C1C(=O)O[C@@H]2/C=C(C)/C=C\[C@@H]3O[C@@]3(C)C[C@@H](O)C12` (stereo partly specified): the GI50 was inactive: 33.9 µM.

On to `C[C@@H](c1ccccc1)n1c(N)c(C#N)c2ccc([N+](=O)[O-])cc2c1=O`, for which the GI50 is inactive: 18.7 µM.

As for `O=C1/C(=C\c2ccc([N+](=O)[O-])o2)SC2NC(COc3ccc(Cl)cc3)=NN12` (stereo unspecified), the GI50 was inactive: 17.9 µM.

With `C=C(CCC(C)C1CCC2C3=C(C(=O)CC21C)C1(C)CCC(=O)[C@@H](C)C1CC3=O)C(C)C(=O)O` (stereo partly specified), the GI50 was inactive: > 100 µM.

As for `CCCCCCc1cc2cc(-c3cn4c(n3)sc3ccccc34)c(=O)oc2cc1O`, the GI50 was inactive: > 87.1 µM.

With `CCOP(=O)(OCC)/C(C#N)=C/c1cnc(-c2ccccc2)[nH]1`, the GI50 was inactive: > 100 µM.

Turning to `CC(=O)N1C(C(=O)NNc2ccccc2)CSC1c1ccccc1` (stereo unspecified), the GI50 is inactive: > 100 µM.

In the case of `CC1=C(C(=O)OCc2ccncc2)C(C2=C(C)SCCS2)C(C(=O)OCc2ccncc2)=C(C)N1`, the GI50 is inactive: 34.3 µM.

On to `CCOC(=O)c1cn(-c2ccc([N+](=O)[O-])cc2)c(=S)n2c1nc1ccccc12`, for which the GI50 is inactive: 58.7 µM.

For `FC(F)(F)P1C2C=CC(CC2)C1(F)F` (stereo unspecified), the GI50 was inactive: > 100 µM.

Take `CCOC(=O)c1oc2ccc([N+](=O)[O-])c3c2c1CCC3`: the GI50 is inactive: > 100 µM.

In the case of `C/C(=N\NS(=O)(=O)c1ccc(C)cc1)C(CN1CCCCC1)C(c1ccccc1)c1c(O)c2ccccc2oc1=O` (stereo unspecified), the GI50 is inactive: > 100 µM.

On to `COC1(CC[C@@H](C)COC2OC(CO)C(O)C(O)C2O)OC2C[C@H]3[C@@H]4CC[C@H]5C[C@@H](OC6OC(CO)C(OC7OC(CO)C(O)C(O)C7O)C(O)C6OC6OC(C)C(O)C(O)C6O)[C@H](O)C[C@]5(C)[C@H]4CC[C@]3(C)C2[C@@H]1C` (stereo partly specified), for which the GI50 is inactive: 1.84 µM.

As to `Cn1nnc2c3c(N(CCO)CCO)ccnc3ccc21`, the GI50 is inactive: 91 µM.

As for `CC(C)(/C=N\O)NO`, the GI50 was inactive: > 10 µM.

For `CC(=O)O[C@H]1CN(S(=O)(=O)c2ccc(C)cc2)C[C@@H]1C1CCCCC1`, the GI50 was inactive: 42.9 µM.

Regarding `O=c1c(-c2ccc(Cl)cc2)nnc2n(Cc3ccccc3)c3ccccc3n12`, the GI50 was inactive: > 100 µM.

For the compound `COc1ccc(C2CC(c3ccccc3)=Nc3c(-c4ccccc4)nnn32)cc1` (stereo unspecified), the GI50 is inactive: 5.74 µM.

Turning to `COc1cc2c(c(O)c1OC)C(=O)[C@@H]1CCC(=O)N1C2`, the GI50 is inactive: > 100 µM.

`Oc1ccc(/C=N/c2ccccc2O)cc1`: the GI50 was inactive: > 100 µM.

For the compound `COc1cc(C(C)c2cc3c(cc2OCCN)OCO3)cc(OC)c1OC` (stereo unspecified), the GI50 is inactive: 59.2 µM.

On to `COC(CN(C=O)[C@@H](c1ccc(Cl)cc1)c1cc2ccccc2o1)OC`, for which the GI50 was inactive: 13.2 µM.

In the case of `O=C(NNC(=S)Nc1ccc(Cl)cc1)c1cc(-c2ccccc2)nc2ccccc12`, the GI50 was inactive: 5.93 µM.

In the case of `CC[N+](CC)(CCNCC(N)=O)CC(N)=O`, the GI50 was inactive: > 10 µM.

Regarding `Cc1sc2ccccc2[n+]1CCC(=O)O`, the GI50 is inactive: > 100 µM.

Turning to `COC(=O)c1cc(NC(=O)Cn2c3ccccc3c3ccccc32)cn1C`, the GI50 is inactive: 60.5 µM.

With `CN(C)/N=C/c1cn(C)c(=O)n(C)c1=O`, the GI50 was inactive: > 100 µM.

For the compound `CC(C)(CCl)NC(=O)c1cccc(C(=O)NC(C)(C)CCl)n1`, the GI50 was inactive: > 100 µM.

On to `N#CC1C[C@@H]2CC3(CCC2CN1C(=O)c1ccccc1)OCCO3` (stereo partly specified), for which the GI50 is inactive: > 100 µM.

In the case of `O=C1OC(=O)C2C1C1C(c3ccccc3)=C(c3ccccc3)C2(O)C2C(=O)OC(=O)C12` (stereo unspecified), the GI50 was inactive: > 100 µM.

In the case of `CC(=O)OCC1OC(n2c(-c3ccccc3)c(/N=N/c3ccc(C)cc3)c(C)c(C#N)c2=S)C(OC(C)=O)C(OC(C)=O)C1OC(C)=O` (stereo unspecified), the GI50 was inactive: > 100 µM.

`CN(CCc1ccccn1)c1nc(=[N+](C)C)ss1`: the GI50 was inactive: > 100 µM.

In the case of `O=C[C@@H](CO)O[C@H](C=O)c1c[nH]c(=O)[nH]c1=O`, the GI50 was inactive: 96.2 µM.

For `O=C(NCc1cccc2ccccc12)N/N=C\c1ccc(Cl)cc1`, the GI50 is inactive: 52 µM.

With `COc1ccc(Nc2nc3cc(C(F)(F)F)ccc3nc2C(=O)O)cc1`, the GI50 is inactive: 23.9 µM.

On to `CC(=O)OCC1OC(n2c(-c3ccccc3)c(C(C)=O)c(-c3cccc4ccccc34)c(C#N)c2=S)C(OC(C)=O)C(OC(C)=O)C1OC(C)=O` (stereo unspecified), for which the GI50 is inactive: > 100 µM.

In the case of `COC(=O)[C@H]1[C@@H](O)[C@@]2(O)c3c(OC)cc(OC)cc3O[C@@]2(c2ccc3c(c2)OCO3)[C@@H]1c1ccccc1`, the GI50 is active: 0.00857 µM.

Turning to `CN(C)C(=N/O)/C(=N\O)N(C)C`, the GI50 is inactive: > 100 µM.

With `Clc1ccc(C2=CC(c3ccccc3)N3C(=N[C@H]4CCCC[C@@H]43)N2)cc1` (stereo partly specified), the GI50 was inactive: 5.04 µM.

For the compound `CC[C@@]12N=C(N(C)C)C[C@]1(O)ON=C2C`, the GI50 is inactive: > 100 µM.

In the case of `CC(=O)CCC#Cc1ccccc1C(=O)C(C)=[N+]=[N-]`, the GI50 was inactive: 61.8 µM.

For `Cc1ccc(NC(=O)C(=O)C2NC(=S)NC2=O)c([N+](=O)[O-])c1` (stereo unspecified), the GI50 was inactive: > 100 µM.

For the compound `COc1ccc(Oc2nc3ccc(C(F)(F)F)cc3nc2-c2ccccc2)cc1`, the GI50 was inactive: > 100 µM.

`CC(=O)N1C(Nc2nccs2)CCN1c1ccccc1` (stereo unspecified): the GI50 is inactive: > 10 µM.

For the compound `CC(=N\N)/C(C)=N/N=C(C)/C(C)=N/N`, the GI50 was inactive: > 100 µM.

For the compound `CCc1c(Cc2[nH]c(Cc3[nH]c(C=O)c(C)c3CC)c(CC)c2CC)[nH]c(C=O)c1C`, the GI50 is inactive: > 100 µM.

In the case of `c1ccc(/C(=N\Nc2nc3ccccc3[nH]2)c2ccccn2)cc1`, the GI50 is active: 0.372 µM.

Take `CC(C)C1(Cl)CCC2C3(C)CCCC(C)(C(=O)O)C3CC(Cl)C2(Cl)C1Cl` (stereo unspecified): the GI50 is inactive: 25.3 µM.

Consider `CC(=O)OC(C(=O)O)C(OC(C)=O)C(OC(C)=O)C(OC(C)=O)C(=O)O` (stereo unspecified), for which the GI50 is inactive: > 100 µM.

With `c1ccc([P+](CCN2Cc3ccccc3C2)(c2ccccc2)c2ccccc2)cc1`, the GI50 is inactive: 18.3 µM.

Take `CC(SC(=S)Nc1cccc(F)c1)C(=O)O` (stereo unspecified): the GI50 is inactive: 31.1 µM.

Turning to `CN(CCN1CCCC1)C1CCc2cc(Cl)c(Cl)cc2C1` (stereo unspecified), the GI50 was inactive: 16.1 µM.

For the compound `Cc1cc(Cl)ccc1NC(=O)C1C(=O)N(c2ccc(Cl)cc2C)C(=O)/C1=N\N` (stereo unspecified), the GI50 is inactive: 33.7 µM.

As for `C[Si]12OCCCN(CCO1)CCO2`, the GI50 was inactive: > 100 µM.

As for `O=c1[nH]/c(=C/c2ccc(OCc3ccccc3)cn2)c(=O)[nH]/c1=C/c1cccnc1`, the GI50 was inactive: 1.47 µM.

For `COc1ccc(-c2cc(-c3cc(F)c(Cl)cc3Cl)[nH]n2)cc1OC`, the GI50 was inactive: 28.8 µM.

As to `Cc1cc(C)nc(NS(=O)(=O)c2ccc(NC(=O)c3cccc4c(Nc5ccc(S(=O)(=O)N=C(N)N)cc5)c5ccccc5nc34)cc2)n1`, the GI50 is inactive: 28.4 µM.

As for `O=C(c1ccccc1)N1C(=O)N(c2ccccc2)C(=N/c2ccccc2)/C1=N\c1ccccc1`, the GI50 was inactive: > 100 µM.

Take `COc1ccc(/N=N/C(=N\c2ccccc2)c2ccc(N(CCC#N)CCC#N)cc2)cc1`: the GI50 was inactive: > 100 µM.

In the case of `CC(CCc1ccccc1)NCC(O)n1c(/N=N/N(C)C)nc2c1c(=O)n(C)c(=O)n2C` (stereo unspecified), the GI50 is inactive: > 100 µM.

In the case of `N#CCCC1(CCC#N)CCCCCCCCC(CCC#N)(CCC#N)C(O)C1O` (stereo unspecified), the GI50 is inactive: > 100 µM.

With `CN(C)CCNC(=O)c1cnn(C)c1[N+](=O)[O-]`, the GI50 was inactive: > 100 µM.

On to `CCc1ccccc1NC(=O)C(=O)C(C#N)c1c(Cl)cccc1Cl` (stereo unspecified), for which the GI50 was inactive: > 100 µM.

As to `COc1ccc(/C=C2\CCC(CN(C)C)C2=O)cc1OC` (stereo unspecified), the GI50 is inactive: 17.7 µM.

`CC(C)(C)OC(=O)CC(NC(=O)OC(C)(C)C)C(=O)N[C@@H]1CCCC[C@H]1C(=O)OCc1ccccc1` (stereo partly specified): the GI50 was inactive: 60.8 µM.

Consider `NCS(=O)(=O)O`, for which the GI50 is inactive: > 100 µM.

Consider `Nc1ccn(CCCC(c2ccccc2)P(=O)(O)O)c(=O)n1` (stereo unspecified), for which the GI50 was inactive: > 100 µM.

Turning to `C=CCOC1OC(CS(=O)(=O)O)C(O)C(O)C1O` (stereo unspecified), the GI50 was inactive: > 100 µM.

Consider `Cc1c(O)c(OC2OC(CO)C(O)C(O)C2O)cc2c1CC[C@@H]1C2(C)C(=O)C[C@]2(C)[C@@H]([C@@](C)(O)C(=O)CCC(C)(C)O)[C@H](O)C[C@@]12C` (stereo partly specified), for which the GI50 was inactive: > 100 µM.

Take `COC1=C2C[C@H](O)C(C)C[C@@]2(OC)OC1=O` (stereo partly specified): the GI50 is inactive: > 100 µM.

For `CN(C)c1cccc(-c2cc(O)c3cc4c(cc3n2)OCO4)c1`, the GI50 is inactive: 2.52 µM.

With `O=c1cc(-c2ccccc2F)[nH]c2cc3c(cc12)OCO3`, the GI50 is active: 0.3 µM.

In the case of `CCN(CC)/[N+]([O-])=N/O`, the GI50 was inactive: > 100 µM.

As for `COc1ccccc1-c1cc(O)c2c(C)cc(C)nc2n1`, the GI50 is inactive: 66.5 µM.
